Experimental findings from patent US20240190987A1, “Engineered EpCam Binding Antibodies” (TigaTX, priority 2021, published 2024) are described below.

The chains are these.
B1: Ab1101: CT heterodimeric binding protein, FIG. 9C (antibody)
heavy 1: EVQLVESGGGLVQPGGSLRLSCAASGFTFSNYWMNWVRQAPGKGLEWVAQIRVKSENFATHYADSVKGRFTISRDDSKSTVYLQMNSLRAEDTAVYYCTLYDGFSWGQGTLVTVSSASTKGPSVFPLAPSSKSTSGGTAALGCLVKDYFPEPVTVSWNSGALTSGVHTFPAVLQSSGLYSLSSVVTVPSSSLGTQTYICNVNHKPSNTKVDKKV[human IgG1 Fc with changes left out]
light: DIQMTQSPSSLSASVGDRVTITCSASSSVSSGNFHWYQQKPGKAPKLLIYRTSNLASGVPSRFSGSGSGTDYTLTISSLQPEDFATYYCQQWSGYPYTFGQGTKVEIKRTVAAPSVFIFPPSDEQLKSGTASVVCLLNNFYPREAKVQWKVDNALQSGNSQESVTEQDSKDSTYSLSSTLTLSKADYEKHKVYACEVTHQGLSSPVTKSFNRGEC
heavy 2: QVQLVQSGAEVKKPGASVKVSCKASGYTFTSYWMHWVRQHPGQGLEWMGMIAPNSGGTNYAQKFQGRVTMTRDTSTSTVYMELSSLRSEDTAVYYCAMGDYVSRDYWGQGTLVTVSSGGGGSGGGGSGGGGSEIVLTQSPGTLSLSPGERATLSCRASSSVSSSYLHWYQQKPGQAPRLLIYSTSSRATGIPDRFSGSGSGTDFTLTISRLEPEDFAVYYCQQYSGYQFTFGQGTKLEIKGGGGS[human IgG1 Fc with changes left out]
modifications: REGION 1..445: note = Ab1101 Knob HC; REGION 1..215: note = Ab1101 Knob LC; REGION 1..471: note = Ab1101 Hole HC
B2: Ab1117: LS2A indinavir binding domain, FIGS. 5A-5E (protein)
scFv-Fc: QVQLVQSGAEVKKPGASVKVSCKASGYTFTSYWMHWVRQHPGQGLEWMGMIHPNSGGTNYAQKFQGRVTMTRDTSTSTVYMELSSLRSEDTAVYYCAMGDYVSRDAWGQGTLVTVSSGGGGSGGGGSGGGGSEIVLTQSPGTLSLSPGERATLSCRASSSVSSSYLHWYQQKPGQAPRLLIYSTSSRATGIPDRFSGSGSGTDFTLTISRLEPEDFAVYYCQQYSGYQFTFGQGTKLEIKGGGGS[human IgG1 Fc with changes left out]
light: DIQMTQSPSSLSASVGDRVTITCSASSSVSSGNFHWYQQKPGKAPKLLIYRTSNLASGVPSRFSGSGSGTDYTLTISSLQPEDFATYYCQQWSGYPYTFGQGTKVEIKRTVAAPSVFIFPPSDEQLKSGTASVVCLLNNFYPREAKVQWKVDNALQSGNSQESVTEQDSKDSTYSLSSTLTLSKADYEKHKVYACEVTHQGLSSPVTKSFNRGEC
heavy: EVQLVESGGGLVQPGGSLRLSCAASGFTFSNYWMNWVRQAPGKGLEWVAQIRVKSENFATHYADSVKGRFTISRDDSKSTVYLQMNSLRAEDTAVYYCTLYDGFSWGQGTLVTVSSASTKGPSVFPLAPSSKSTSGGTAALGCLVKDYFPEPVTVSWNSGALTSGVHTFPAVLQSSGLYSLSSVVTVPSSSLGTQTYICNVNHKPSNTKVDKKV[human IgG1 Fc with changes left out]
B3: Ab1102: LS2A indinavir binding domain, FIGS. 5A-5E (protein)
scFv-Fc: QVQLVQSGAEVKKPGASVKVSCKASGYTFTSYWMHWVRQHPGQGLEWMGMIHPNSGGTNYAQKFQGRVTMTRDTSTSTVYMELSSLRSEDTAVYYCAMGDYVSADYWGQGTLVTVSSGGGGSGGGGSGGGGSEIVLTQSPGTLSLSPGERATLSCRASSSVSSSYLHWYQQKPGQAPRLLIYSTSSRATGIPDRFSGSGSGTDFTLTISRLEPEDFAVYYCQQYSGYQFTFGQGTKLEIKGGGGS[human IgG1 Fc with changes left out]
light: DIQMTQSPSSLSASVGDRVTITCSASSSVSSGNFHWYQQKPGKAPKLLIYRTSNLASGVPSRFSGSGSGTDYTLTISSLQPEDFATYYCQQWSGYPYTFGQGTKVEIKRTVAAPSVFIFPPSDEQLKSGTASVVCLLNNFYPREAKVQWKVDNALQSGNSQESVTEQDSKDSTYSLSSTLTLSKADYEKHKVYACEVTHQGLSSPVTKSFNRGEC
heavy: EVQLVESGGGLVQPGGSLRLSCAASGFTFSNYWMNWVRQAPGKGLEWVAQIRVKSENFATHYADSVKGRFTISRDDSKSTVYLQMNSLRAEDTAVYYCTLYDGFSWGQGTLVTVSSASTKGPSVFPLAPSSKSTSGGTAALGCLVKDYFPEPVTVSWNSGALTSGVHTFPAVLQSSGLYSLSSVVTVPSSSLGTQTYICNVNHKPSNTKVDKKV[human IgG1 Fc with changes left out]
B4: Ab1121: LS2A indinavir binding domain, FIGS. 5A-5E (protein)
scFv-Fc: QVQLVQSGAEVKKPGASVKVSCIASGYTFTSYWMHWVRQHPGQGLEWMGMIHPNSGGTNYAQKFQGRVTMTRDTSTSTVYMELSSLRSEDTAVYYCAMGDYVSRDYWGQGTLVTVSSGGGGSGGGGSGGGGSEIVLTQSPGTLSLSPGERATLSCRASSSVSSSYLHWYQQKPGQAPRLLIYSTSSRATGIPDRFSGSGSGTDFTLTISRLEPEDFAVYYCQQYSGYQFTFGQGTKLEIKGGGGS[human IgG1 Fc with changes left out]
light: DIQMTQSPSSLSASVGDRVTITCSASSSVSSGNFHWYQQKPGKAPKLLIYRTSNLASGVPSRFSGSGSGTDYTLTISSLQPEDFATYYCQQWSGYPYTFGQGTKVEIKRTVAAPSVFIFPPSDEQLKSGTASVVCLLNNFYPREAKVQWKVDNALQSGNSQESVTEQDSKDSTYSLSSTLTLSKADYEKHKVYACEVTHQGLSSPVTKSFNRGEC
heavy: EVQLVESGGGLVQPGGSLRLSCAASGFTFSNYWMNWVRQAPGKGLEWVAQIRVKSENFATHYADSVKGRFTISRDDSKSTVYLQMNSLRAEDTAVYYCTLYDGFSWGQGTLVTVSSASTKGPSVFPLAPSSKSTSGGTAALGCLVKDYFPEPVTVSWNSGALTSGVHTFPAVLQSSGLYSLSSVVTVPSSSLGTQTYICNVNHKPSNTKVDKKV[human IgG1 Fc with changes left out]
B5: Ab1104: LS2A indinavir binding domain, FIGS. 5A-5E (protein)
scFv-Fc: QVQLVQSGAEVKKPGASVKVSCKASGYTFTSYWMHWVRQHPGQGLEWMGMIHPSSGGTNYAQKFQGRVTMTRDTSTSTVYMELSSLRSEDTAVYYCAMGDYVSRDYWGQGTLVTVSSGGGGSGGGGSGGGGSEIVLTQSPGTLSLSPGERATLSCRASSSVSSSYLHWYQQKPGQAPRLLIYSTSSRATGIPDRFSGSGSGTDFTLTISRLEPEDFAVYYCQQYSGYQFTFGQGTKLEIKGGGGS[human IgG1 Fc with changes left out]
light: DIQMTQSPSSLSASVGDRVTITCSASSSVSSGNFHWYQQKPGKAPKLLIYRTSNLASGVPSRFSGSGSGTDYTLTISSLQPEDFATYYCQQWSGYPYTFGQGTKVEIKRTVAAPSVFIFPPSDEQLKSGTASVVCLLNNFYPREAKVQWKVDNALQSGNSQESVTEQDSKDSTYSLSSTLTLSKADYEKHKVYACEVTHQGLSSPVTKSFNRGEC
heavy: EVQLVESGGGLVQPGGSLRLSCAASGFTFSNYWMNWVRQAPGKGLEWVAQIRVKSENFATHYADSVKGRFTISRDDSKSTVYLQMNSLRAEDTAVYYCTLYDGFSWGQGTLVTVSSASTKGPSVFPLAPSSKSTSGGTAALGCLVKDYFPEPVTVSWNSGALTSGVHTFPAVLQSSGLYSLSSVVTVPSSSLGTQTYICNVNHKPSNTKVDKKV[human IgG1 Fc with changes left out]
B6: Ab1114: LS2A indinavir binding domain, FIGS. 5A-5E (protein)
scFv-Fc: QVQLVQSGAEVKKPGASVKVSCKASGYTFTSYWMHWVRQHPGQGLEWMGMIHPNSGGTNYAQKFQGRVTMTRDTSTSTVYMELSSLRSEDTAVYYCAMGDYASRDYWGQGTLVTVSSGGGGSGGGGSGGGGSEIVLTQSPGTLSLSPGERATLSCRASSSVSSSYLHWYQQKPGQAPRLLIYSTSSRATGIPDRFSGSGSGTDFTLTISRLEPEDFAVYYCQQYSGYQFTFGQGTKLEIKGGGGS[human IgG1 Fc with changes left out]
light: DIQMTQSPSSLSASVGDRVTITCSASSSVSSGNFHWYQQKPGKAPKLLIYRTSNLASGVPSRFSGSGSGTDYTLTISSLQPEDFATYYCQQWSGYPYTFGQGTKVEIKRTVAAPSVFIFPPSDEQLKSGTASVVCLLNNFYPREAKVQWKVDNALQSGNSQESVTEQDSKDSTYSLSSTLTLSKADYEKHKVYACEVTHQGLSSPVTKSFNRGEC
heavy: EVQLVESGGGLVQPGGSLRLSCAASGFTFSNYWMNWVRQAPGKGLEWVAQIRVKSENFATHYADSVKGRFTISRDDSKSTVYLQMNSLRAEDTAVYYCTLYDGFSWGQGTLVTVSSASTKGPSVFPLAPSSKSTSGGTAALGCLVKDYFPEPVTVSWNSGALTSGVHTFPAVLQSSGLYSLSSVVTVPSSSLGTQTYICNVNHKPSNTKVDKKV[human IgG1 Fc with changes left out]
B7: Ab1111: LS2A indinavir binding domain, FIGS. 5A-5E (protein)
scFv-Fc: QVQLVQSGAEVKKPGASVKVSCKASGYTFTSYWMHWVRQHPGQGLEWMGMIHPNSGGTNYAQKFQGRVTMTRDTSTSTVYMELSSLRSEDTAVYYCAMADYVSRDYWGQGTLVTVSSGGGGSGGGGSGGGGSEIVLTQSPGTLSLSPGERATLSCRASSSVSSSYLHWYQQKPGQAPRLLIYSTSSRATGIPDRFSGSGSGTDFTLTISRLEPEDFAVYYCQQYSGYQFTFGQGTKLEIKGGGGS[human IgG1 Fc with changes left out]
light: DIQMTQSPSSLSASVGDRVTITCSASSSVSSGNFHWYQQKPGKAPKLLIYRTSNLASGVPSRFSGSGSGTDYTLTISSLQPEDFATYYCQQWSGYPYTFGQGTKVEIKRTVAAPSVFIFPPSDEQLKSGTASVVCLLNNFYPREAKVQWKVDNALQSGNSQESVTEQDSKDSTYSLSSTLTLSKADYEKHKVYACEVTHQGLSSPVTKSFNRGEC
heavy: EVQLVESGGGLVQPGGSLRLSCAASGFTFSNYWMNWVRQAPGKGLEWVAQIRVKSENFATHYADSVKGRFTISRDDSKSTVYLQMNSLRAEDTAVYYCTLYDGFSWGQGTLVTVSSASTKGPSVFPLAPSSKSTSGGTAALGCLVKDYFPEPVTVSWNSGALTSGVHTFPAVLQSSGLYSLSSVVTVPSSSLGTQTYICNVNHKPSNTKVDKKV[human IgG1 Fc with changes left out]

This data set in a line: Differential scanning fluorimetry (DSF) melting temperature. The data set is classed as physicochemical. The note with it: LS2A R4 variants (Table 21). As to the method: DSF was performed on a LC480 Lightcycler Instrument II (Roche). Purified recombinant protein was diluted to 5 μM in DSF buffer (PBS, pH 7.4, Sypro Orange 5×) with small molecule (10 μM VTX) or vehicle (0.05% DMSO) and then heated with a temperature gradient (0.01° C./s) from 25 to 95° C. Data were continuously acquired at ˜465 nm (excitation) and ˜580 nm (emission). Data was analyzed to generate first derivative curves in which the curve maximum was reported as the melting temperature of the protein.
For B1, the “TM (° C.)” value is 54.9 °C.
To B2 belongs 57.5 °C; to B3, 65.4 °C.
In the case of B4, the “TM (° C.)” value was 54.7 °C.
As to B5, the “TM (° C.)” value was 59.2 °C.
To B6 belongs 59.9 °C; to B7, 56.9 °C.
